# Experimental data published in the supplement of paper PMC11417369.
# The other results are listed elsewhere or left out.
# Test system: PfAP2-HC AP2 domain (GST-tagged)
# Assay: gcPBM binding intensity (ln(normalized median fluorescence intensity)); higher = stronger DNA binding
# Outline: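 After 1 h on an Agilent 4 × 180k array of primer-extended double-stranded 36-bp intergenic genomic probes and negative controls, bound GST-tagged P. falciparum DNA-binding domains were detected with Alexa488 anti-GST antibody and scanned at 488 nm. The domains had been expressed in E. coli, and binding took place in 1× PBS with 1% milk, 0.2 mg/ml BSA, 0.5% salmon testes DNA and 0.03% Triton X-100. Binding intensity is the highest Masliner-normalised natural-log median intensity across replicate spots of either probe orientation.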
row,Sequence,gcPBM binding intensity (ln)
1,AACACATACAGACACACACACAAAAAAAAAAAAAAA [CACACA_site6322],10.9
2,CACCTGCACGATTGCACACAAATATGTTTTGAAGAT [CACACA_site2103],9.88
3,ACTACATAAAATGACACACACAAACTTTAAAATTTA [CACACA_site3474],10.2
4,ATATTTTCTAATCAATGTACTTATTCTACACATTAA [XGTACX_site5774],9.71
5,TATATTTGGAAACACACACACAAAAAAAAAAAAAAA [CACACA_site2474],9.98
6,ATATTTTATGTAAAGGTGCAAAACAACATTAAAAAA,9.84
7,ATATATACATTTCTATGTACATATGTATATATGTAT [XGTACX_site1522],9.76
8,TTAATCTAGAGAAATTGTACATTTTATTAACACAAT [XGTACX_site1190],9.37
9,ATAAAAGAAAACAATAGTACTTTAGTTTTTCTTTTT [XGTACX_site5686],9.43
10,AAACAAAAGTAGAAGGTAGAGTATTTTATATTTAAA [GTGCAC_negctrl_site503],9.57
11,AAACCTTTAGAAAATCGTACAAAACATAACCACCTA [XGTACX_site1098],9.8
12,ATTTTTTTTTTTTGTTTTTTCTTACAAATTAAATGA [CACACA_negctrl_site1457],9.48
13,AAATAACTCATGGGTTGTACTTAAAAAAAAAAAGAT [XGTACX_site4168],9.71
14,TTTTTTTTTTTTCACGTGCACTATACATATAAGTAA,9.71
15,CTCTTGTCATTTTGCACACACACATGGATAGGTTAT [CACACA_site5655],10.4
16,ATATCACATTCCACGGTACACACTAATAGAAAAATC [CACACA_site9204],9.89
17,TTTATACAATTAGACACACACAAAAAGTATAAATAT [CACACA_site6637],10.1
18,GGAACATATGAACTCACACACATTTTCACTTAAATA [CACACA_site3684],10.6
19,TAAAATGATAAATGAATGTGATCATTTTATAAAATA [CACACA_negctrl_site674],9.63
20,AATATTTATAAATTTACACACACACCGGTGAACATA [CACACA_site8579],10.4
21,ATATATCACATGAACATTAAAAAAAAAAAAGAGGGG [TGCATGCA_negctrl_site187],9.7
22,AAAATATATACAAGCAAACACACGTAATATATATTA [CACACA_site2152],9.9
23,ATATTACTAATTAATGGTACACGTTATAATAAACTA [XGTACX_site7051],9.55

row,Sequence,gcPBM binding intensity (ln)
1,GCATAAAATATGATCGCACACTGTTTAAAATACTTA [CACACA_site828],9.81
2,AGGTAGTTCTGTATCACACACATATAAATATAAATA [CACACA_site7110],9.89
3,ATACCTTCTTCATTCACACATATACGTAAAATGTTC [CACACA_site5657],9.86
4,TTTAAACTAGAACAAGTGCAGATATGTATAATAATA,9.66
5,TATTTTTAGAAAATAAAGAAGGAGAATTGAAAATAT [CACACA_negctrl_site361],9.49
6,ATTTATTTTTATCAAGCATGCATAAAAAATAAATTA [TGCATGCA_site440],9.23
7,AAGAAAAGATATATATATAAATATATATATATATAT [TGCATGCA_negctrl_site353],10
8,TTTTATTTTGGAACGTGTACATATAATTATTTATTG [XGTACX_site8094],9.66
9,GTTCCATATATTACATGTACATATTTTTACATTTAA [XGTACX_site660],9.95
10,TGATTAATAGCAGGTAGTACTATAATAATATAAATA [XGTACX_site2776],9.65
11,AGAAGAAAAGAAATATGTACATAAACGTCTGAACTA [XGTACX_site1699],9.75
12,ATAACAAATATGATAGCATGCTACATATTACAACTT [TGCATGCA_site524],9.76
13,TTTAAAAAAAAAAAAAAAAATTCTACATGTAATTTA [CACACA_negctrl_site1205],9.08
14,TGACATAAATTTAATACACACACAAAGAAAAAAAAA [CACACA_site9354],10.2
15,GGTAGGTGGATATATACACACATATATTATAGATAT [CACACA_site7021],9.88
16,CACAGATATATACATACACACATATATACACATATA [CACACA_site6323],10.1
17,ATCGAGAAAAATAAAATAATACAATTTCTTTAAATA [XGTACX_negctrl_site162],9.48
18,ATTCCCTTAAGAAACTGTACAAAACTTTCTTCGATT [XGTACX_site775],9.57
19,GTGTGTGTATATATTTGTACATATATTTAAACATAT [XGTACX_site1074],10.5
20,TATACATAAATTATATGTACTGAAAATACATAATTA [XGTACX_site3626],9.55
21,AAAAAGAAGAATATATGTACACAAAATTTATGAGTT [XGTACX_site8609],9.82
22,AAAAAAAAAAATATATTATTTTACTTGTTTATTTTA [CACACA_negctrl_site1447],9.55
23,CATTATAAGAAACACACACACATATATATATATATA [CACACA_site1051],10.1

row,Sequence,gcPBM binding intensity (ln)
1,AAATTCTTAACCCAACGTACATATAATAAATTCTTA [XGTACX_site8538],9.46
2,TAAACCAAACAATTATGTATAAGATGTATATATATA [GTGCAC_negctrl_site438],9.69
3,AAAAAAAAAAGAACCCGTACATAAATAATATATATA [XGTACX_site164],9.73
4,TTTTTTTTTTCTTAGGTGCAAAAAATAAGTATATAT [GTGCAC_site9394],9.41
5,TTTTTTTTGTATTAATGTACATATAACTTTTTTTTT [XGTACX_site7903],9.5
6,TAAAAAATAAAATAATGTACATATGAATTATATATT [XGTACX_site8398],9.68
7,AAAAAAAAAAAAGAAACACACACATTTGTATATAAT [CACACA_site8648],10.4
8,TATAGTTATATTAGAAGTACTTCATTTTAACATATT [XGTACX_site7101],9.55
9,GAAACATAAAAATATATTGAAATAGTATCATGGGTA [CACACA_negctrl_site352],9.7
10,TTAATTACATGTTATTGTACGTATTTTCTATCTATC [XGTACX_site844],9.77
11,CATACAGACGAACACACACACATATAAATATAAATA [CACACA_site6443],10.2
12,AACCACATGGTGTAATGTACATTACCTTAACAATAA [XGTACX_site3055],9.75
13,AAATATTATATATATACACACACACCGGCATGCACA [CACACA_site7916],10.2
14,TATTATTTTTTTTTTTGTACATATATGTATATATAT [XGTACX_site8471],9.71
15,TATAATAAAATTGGTAGTACATTAATTTATGTATAG [XGTACX_site3059],9.64
16,AAAAAAATTCTTGGCGCACACACTTTAAAAATTAAA [CACACA_site597],9.94
17,AAGGATTACAAAAAAAGTACAAATGGATTTTTTCCC [XGTACX_site8905],9.55
18,CTTACAAATAAACAACGTACTTATTCGAATTATGCT [XGTACX_site2431],9.63
19,GTTTTAAAATTAAATATTATGGCATAATTCAAGAAA [GTGCAC_negctrl_site721],9.45
20,AAAATTTTTTAACACTGTACTTGTAATATTAAAACT [XGTACX_site8369],9.59
21,AAATGCGCCATGTGTACACATATATATATATATATA [CACACA_site4649],10.1
22,TACATATATAAAAATTGTACACTTCATAAGAAAAAA [XGTACX_site4347],9.58
23,TTAAATAAGTTCTTCACACATATATATATATATATA [CACACA_site4742],9.67

row,Sequence,gcPBM binding intensity (ln)
1,TTTTTATATTATTTAATGAGAAATAATTATAAACAA [CACACA_negctrl_site553],9.27
2,AAAAATATTATGATGTTTATTAGAAAGGAAAAAACT [CACACA_negctrl_site1417],9.56
3,ATGTGATGTTATATATGTACTTATTTTTTAATAAGG [XGTACX_site1786],9.59
4,TCGGTATCTGTTCAAAGTACACATTTGTATACAAAA [XGTACX_site1890],9.47
5,ACACTATCTTAGATTTGTACATATTTATATATGTAT [XGTACX_site8739],9.82
6,TATATAACATATGGGACACACATGCAACTGTTATAT [CACACA_site3792],9.91
7,TATTTTTACAATGGTAGTACCATTTTGAATCTTTGT [XGTACX_site6092],9.6
8,CACCCGCACGTATTTGCACACATTGCCACGTAATTA [CACACA_site5786],10
9,TGCTTATCCATTTCTACACACAAAAAAAAAAAAAAA [CACACA_site37],9.5
10,AAATGGGTTTATTTAACACACAAAAGAAAAAATATA [CACACA_site1938],9.77
11,TATATATATTTATGTTGTACAAAATATTATTACGTA [XGTACX_site5384],9.56
12,TTATATTATAACAAACGTACGAATTTTATACAAATA [XGTACX_site7258],9.58
13,ATATATATATATATATGTACATATATACATATATGT [XGTACX_site1521],10.2
14,TTTTTTTTTTTTTGATGTACAATAATTAAAGAGTAA [XGTACX_site8403],9.2
15,AATAACTATATATGTGTGCACAAAAATTTGACATAA,10.1
16,AGTAGTCTGGAGAAGAGTACATAGTTTCTGGTAGCT [XGTACX_site2023],9.64
17,AGTTTTTATTAAAACAAAATTTAATTATAACGTTGA [XGTACX_negctrl_site298],9.32
18,CGTAGCCCCACTAACACACACAAATATACTCAATCA [CACACA_site5587],10.3
19,TTATATGTATGAACAAGTACATGCTATAATTATAAA [XGTACX_site1399],9.52
20,TATATATATATATACACACATACATATATATATTTG [CACACA_site857],9.82
